Source: paper PMC12136788
The other results are listed elsewhere or left out.

B1: chr4:106585523:106585524:+_ENSMUSG00000061887_ENSMUST00000030367|mus_mus|FALSE|FALSE (ssRNA)
RNA: GGGAGUUCUACAGUCCGACGAUCAGGUCUGUGCAGAUUUCUGUGCUCCUACGUGCAGUAAAUAUUCGUAGACGUAUAAAGCUAACUUUUCCCGAGCCUGCCCGUCCGAGGGCACCGCCGAGCCUUUGCCUUUGGCAAACAUGGCAACAGAGGAUUGAGCAUCA
B2: chr2:27656205:27656206:+_ENSG00000115216_ENST00000379852|hu_mus|motif|central (ssRNA)
RNA: GGGAGUUCUACAGUCCGACGAUCACAGAAGUCAGGCCAGGAGCUAAAGAUGAGGAUUCUACCUUUGGGUCUGAGCCACUGCUGACGGCUGUUUGGGACUCCCCUUCCGACAUGCUGGAAUGAACACUCAGCCUCCCGACUCCGCAACAGAGGAUUGAGCAUCA
B3: chr7:75932113:75932114:+_ENSG00000106211_ENST00000248553|hu_hu|hu_hu_hu_mus_False|88_98 (ssRNA)
RNA: GGGAGUUCUACAGUCCGACGAUCCUGCGACCACUCAUCCGGCAGCCGGGGCAGCCCGAAAGCUUGAUCGAAGAGGCGGCUGUGUGCAGGGUACCAGUCCCGGAAUGGUUCCCAGCUCGGGCUCCGCAGCAGCGAGAAGGGCACCAACAGAGGAUUGAGCAUCA
B4: chr1:58468927:58468928:-_ENSMUSG00000026034_ENSMUST00000148330|mus_mus|mus_mus_mus_hu_False|28_38 (ssRNA)
RNA: GGGAGUUCUACAGUCCGACGAUCAAUUACUGAAAAAGAUGUUCAUUACCUUAGCUAUGUACUUAAUGAACCAAAUUACCCAAACAAAAUAAACAUGUUUACAAAUUAAGCUAUACAAUUUACAAAGCUGUACAAAAUAACUUACAACAGAGGAUUGAGCAUCA
B5: 33255743_33255984_918_CDS_ENSG00000227057_ENST00000374617|human|control|control (ssRNA)
RNA: GGGAGUUCUACAGUCCGACGAUCUCCAGUUCGAGAGUAGUUUAGUCUGUAGGGUCCAAACUGCCGCAGAUUCAAGUCAAAGUGCUUGGCUGCACUUGCAAUGUCCACAGCCUCCACAAUGUCAGCCUGGCAUAUCUUUGCUGUCAACAGAGGAUUGAGCAUCA
B6: chr5:110834802:110834803:-_ENSG00000164211_ENST00000296632|hu_hu|motif|central (ssRNA)
RNA: GGGAGUUCUACAGUCCGACGAUCUUACCCAUAUUAACAACAACAAAACAGUAGACACAGGAAUACUAACACAUAAACAACGGACAUUAAACACGGAAAUGGAUUUCGAGAUGUGUGCAUGUACACAAAAAAAUAUAUACAAAGCAACAGAGGAUUGAGCAUCA
B7: chr1:21151686:21151687:-_ENSG00000075151_ENST00000400422|hu_hu|FALSE|FALSE (ssRNA)
RNA: GGGAGUUCUACAGUCCGACGAUCUAAAAAGUCCUUCCAGCUGAGGUCAGCCUCCCUCCAUAAGGCUCCCACUUUCUUAUGGCUCAUUUGUUUGCAUAGUAGGUGCAAUAUUUCAGAUAGCAAGACCCCAGCUCUUCCAACAGGCAACAGAGGAUUGAGCAUCA
B8: chr15:68825492:68825493:+_ENSMUSG00000022332_ENSMUST00000022954|mus_hu|motif|central (ssRNA)
RNA: GGGAGUUCUACAGUCCGACGAUCAAUCACCACAUCGAUGUACUUUUCUUCAUCCUUGCCUUCUCCUUUUUGAAACUUUUCGGUUUCUUGGUUCACCAGGCGCAGGGCGUGCGUGAAGGAGGGGUCCAGGGAGUCCUUCUCCGCCAACAGAGGAUUGAGCAUCA
B9: chr19:42637464:42637465:+_ENSMUSG00000025184_ENSMUST00000026188|mus_mus|motif|central (ssRNA)
RNA: GGGAGUUCUACAGUCCGACGAUCAGUCUGAACUUCCCAACAGUCCAUGUCCUUUGGUUUAAAAAGUCUUUGUAAAGGUAUACGGGAUACAAUCCCAGCGUCGGGAGCUCUGUGUUGAUGUUCUUGGGAUGAGGCUUCUGUGGACAACAGAGGAUUGAGCAUCA
B10: chr16:94690093:94690094:+_ENSMUSG00000040785_ENSMUST00000117648|mus_hu|mus_mus_mus_hu_True|18_58 (ssRNA)
RNA: GGGAGUUCUACAGUCCGACGAUCGGGCUGGGAUGACGGACACACAGCCUCGAUUCCAGGGGGAAAAAGUCUUAGUCAAUACUAAUUAAAAAGUGUUAAUGAUUUUUGAAAAUCAGAUGUAGAUUAAAAAAGAUGAAAAGCAAACAACAGAGGAUUGAGCAUCA
B11: chr14:103803487:103803488:+_ENSG00000100664_ENST00000558506|hu_mus|hu_hu_hu_mus_True|8_8 (ssRNA)
RNA: GGGAGUUCUACAGUCCGACGAUCGAGUUUAUGAUGUGUGUCAAGCAUGCCUCGGUACCCACAGGCUUUACAAGAAUUACCUAUUGUUUGCUUCUUUGGAUUGACAUGCAGAUCUGUUUCAGGAUUCUCACAUUCAGGACAGAGCAACAGAGGAUUGAGCAUCA
B12: 174000111_174000231_1397_CDS_ENSMUSG00000003458_ENSMUST00000003550|mouse|control|control (ssRNA)
RNA: GGGAGUUCUACAGUCCGACGAUCGUGGAAGGAGCCAGAGUGGUCAGCCAGGACCACGCCAGAGAUGUUUCGAGCCCGAAGAAAUCGUUGUAGAGACGAAGGUGGAAGGGCCUGGGACUGGGCCAGUCUCCUCAGGACAACUUCCAACAGAGGAUUGAGCAUCA
B13: chr7:54825262:54825263:-_ENSG00000132432_ENST00000352861|hu_hu|hu_hu_hu_mus_False|28_78 (ssRNA)
RNA: GGGAGUUCUACAGUCCGACGAUCCUGCCGGCUGGGCUCCACAAACUGCAUUACCUGCAUGACUGCCGUUGGAUGGCGGAUUGAGAGCGUAGAGACACGUAGCUCAGGGAGCUUGCUAGCCCAACGGAACCGGAAGCUGGCAACCAACAGAGGAUUGAGCAUCA
B14: chr13:36158134:36158135:+_ENSG00000172915_ENST00000537702|hu_hu|FALSE|FALSE (ssRNA)
RNA: GGGAGUUCUACAGUCCGACGAUCGGUUGUGAAAGGUUCAAUUCGAACAAGCCAGGAUAAAGUAGAUGUUGCUGUUGAAUAAUGGGUAUUAUAAUGGUAGGGUGGGCUUUGAUCAUCUUCCCAUGUCUCAUAACGCUCUGCAUACAACAGAGGAUUGAGCAUCA

What follows are binders tested against T1, UNK ZnF1-3 (human, UniProt Q9C0B0 31-174) (assay: nsRBNS (natural sequence RNA bind-n-seq); RBNS binding buffer (assumed for nsRBNS): 25 mM Tris pH 7.5, 150 mM KCl, 3 mM MgCl2, 0.01% Triton X-100, 500 ug/ml BSA, 20 U/ml SUPERase-In, 4 C; UNK is unkempt and MSI1 is Musashi-1; names of the RNAs are library labels; protein concentration not given here; high values mean tight binding).
T1 sequence: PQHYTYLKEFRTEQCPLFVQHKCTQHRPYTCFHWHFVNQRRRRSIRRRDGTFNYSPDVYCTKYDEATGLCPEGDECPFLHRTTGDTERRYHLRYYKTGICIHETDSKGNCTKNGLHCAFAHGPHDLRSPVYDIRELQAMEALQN

| Binder | binding signal |
| --- | --- |
| B1 | 0.723 enrichment R |
| B2 | 1.32 enrichment R |
| B3 | 1.35 enrichment R |
| B4 | 0.561 enrichment R |
| B5 | 0.835 enrichment R |
| B6 | 1.63 enrichment R |
| B7 | 0.474 enrichment R |
| B8 | 0.743 enrichment R |
| B9 | 1.05 enrichment R |
| B10 | 2.38 enrichment R |
| B11 | 1.44 enrichment R |
| B12 | 1.35 enrichment R |
| B13 | 1.28 enrichment R |
| B14 | 1.04 enrichment R |
